Drawing on the RNAGym collection of RNA variant scans (doi:10.7554/elife.90254), this text covers self-cleavage for 56 variants.

Read counts are not given, so values of variants with three or more changes are uncertain.

To fix the notation:
B1: LINE1-mini (parent)
chain: GGCAGAGCUCAACACAGCGUGGCAAAGUGGCUGUGGCUAGACUGCC

The data set covers variants of B1. Briefly: self-cleavage, relative activity (ratio to wild type); higher = more cleavage; in vitro, sequencing; the parent is a self-cleaving ribozyme.
Regarding AGCAGAGCUCAACACAGCUUGGCAAAGUGGCUCUGGCUAGACUGCC [G1A G19U G33C], the self-cleavage was found to be 0.06. Then AGCAUAGCUCAACACAACGUGGUAAAGUGGCUGUGGCUAGCCUGCC [G1A G5U G17A C23U A41C], with 0.06; and AGCAUAGCUCAACACAGCGUGGCAAAGUGGCUAUGGCAAUACUGCC [G1A G5U G33A U38A G40U], with 0.05. Then AGCAGAGCUCAACAUAGCGUUACAAAGUGGCUGUGUCUAGACUGCC [G1A C15U G21U G22A G36U], with 0.22; and AGCAGAUGUCAACACAGCGUGGCAAAAUGGCUGUGGCUAGACUGCC [G1A G7U C8G G27A], with 0.77; and AACAGAGCUCUACACAGCGUGGCAAAGUGGCUGUGGCUAGACUGCC [G1A G2A A11U], with 0.1. The value for AUCAGAGCUCAACACAGCGUGGCAAAGUGGCUUUGGCUAGACUGCC [G1A G2U G33U] was 0.43; that for AUCAGAGCUCAACACAGCGUGGCAAAGUGGCUUUGGCUCGACUGCC [G1A G2U G33U A39C] was 0.06. AGCAGAGCUCAACACAGCGUGGCAAAGUUGCUGUUGCUAGACUGCC [G1A G29U G35U]: the self-cleavage amounted to 0.1. The value for AUCAGAAGUCAACACAGCGUGGCAAAGUGACUGUGGCUAGACUGCC [G1A G2U G7A C8G G30A] was 0.43; that for AGCAGAGCUCAACAGAGUGUGACAAAGUGGGUGUGGCUAGACUGUC [G1A C15G C18U G22A C31G C45U] was 0.02.

For the variant AGCAGAUCUCAACACAGCGUGGCAAAGUGCCUGUGGCUAGACUGCC [G1A G7U G30C], the self-cleavage was 0.11.

With AGCAGAGCUCAACACAGCGUGGCAAAGUGACUGUGGGUAGACUGCC [G1A G30A C37G], the self-cleavage was 0.05. Then AUGAGAGCUCAAAACAGGGUGGCAAAGCGGCAGUGGCUAGACUGCC [G1A G2U C3G C13A C18G U28C U32A], with 0.17; and AGCAGAGCUCAACACAGGGUGGCAAAGGGGCUGUGGCUAGACUGCA [G1A C18G U28G C46A], with 1.83; and AACAGAGCUGAACACAGCGUGUCAAAGUGGCUGUGGCUAGACUGCC [G1A G2A C10G G22U], with 0.2.

Consider AGCAUAGCUCAACACAGCGUGGCAAAGUCGCUGUGGCUAGACUGCC [G1A G5U G29C], for which the self-cleavage was found to be 0.02. Then AUCAGAGCUCAACACAGCUUGGCAAAGUGGCUGUUGCUAGACUGCC [G1A G2U G19U G35U], with 0.03; and AGCAGAGCUCAACACAGCGUGGGAAAAUGGCUGUGGCUAGACUGCC [G1A C23G G27A], with 0.3; and AACAGACCUCAACACAUAGUGGCCAAGGGGCUGUGGCUAGACUGCC [G1A G2A G7C G17U C18A A24C U28G], with 0.06. With AGCAGAGCUCAACACAGUGUGGCAAAGUGGCUGUGGCUAGGCUGCU [G1A C18U A41G C46U], the self-cleavage amounted to 0.01. As to ACCAGAGUUCAACACAGCGUGGCACAGUGGCUGAGGCUAGAUUGCC [G1A G2C C8U A25C U34A C42U], the self-cleavage was 0.17.

In the case of AGCAUAGCUCAACACAGUGUGGCAAAGUGGCUGUGGCUUGACUGCC [G1A G5U C18U A39U], the self-cleavage is 0.05.

Regarding AGCAGAGCUCAACACAGAGUGGCAAACUGGCUGUGCCUAGACAGCC [G1A C18A G27C G36C U43A], the self-cleavage came out at 0.03.

In the case of AGCAUAGCUCAACACAGCGUGGCAAAGUGGCUUUGGCUAGACUGCA [G1A G5U G33U C46A], the self-cleavage came to 0.04. Then AGCAGAUCUCAACACAGCGUGGCAAAGUGGCUGUGGCUAGACUGCA [G1A G7U C46A], with 0.1; and AGCAGAGCUCAACACAGCGUGGCAAAGUAGCUGUGUCUAGACUCCC [G1A G29A G36U G44C], with 0.21; and AGCAGAGCUCAACACAGCGUGGUAAAGUGGCUGUGGCUAGACAGCC [G1A C23U U43A], with 0.04. The value for AGCAGAACUCAACACAGCGUAGCAAAGUGGCUGUGGCUAGACUGCC [G1A G7A G21A] was 1.8.

Turning to AGCAGAGCUCAACACAGCGUGGAACAGUGGCUGUGGCUAGACUGCC [G1A C23A A25C], the self-cleavage is 0.46.

On to AGCAGAGCUCAACACAGUGUGGCAAAGUGGCUGUGGCUAGACUGGC [G1A C18U C45G], for which the self-cleavage turned out to be 0.07. The value for AGCAAAGCUCAACACAGCGUGGAAAAGAGGCUGUGGCUAGACUGCC [G1A G5A C23A U28A] was 0.07; that for AGCAGAGCUCAACACAGCCUGGGAAAUUGGCUGGGGCUAGACUUCC [G1A G19C C23G G27U U34G G44U] was 0.04.

Consider AGCAGAGCUCAACAGAGCGUGGCAAACUGGCUGUGGCUAGACUGCC [G1A C15G G27C], for which the self-cleavage was 0.06. For the variant AGCAAAGCUGAACACAGCGUGGCAAAGUGUCUGUGGCUAGACUGCC [G1A G5A C10G G30U], the self-cleavage was 0.11. The value for AGCAGAACUCAACACUGCGUGGAAAAGUGGCUGGGGCUAGUCUGCC [G1A G7A A16U C23A U34G A41U] was 0.37; that for AGCAUAGCUCAACACAGCGUGGCAAAGGGAAUGUGGCUAGACUGCC [G1A G5U U28G G30A C31A] was 0.06.

With AACAGAGCUCAACACCGCGUGGCAAAGUGGCUGUGGCUAGACUGCU [G1A G2A A16C C46U], the self-cleavage stood at 0.43. Take AUCAGAGCUCAAUACAGCGUGGCAAAGUGGCUGUGGCCAGACUGCC [G1A G2U C13U U38C]: the self-cleavage stood at 0.09. The value for AGCAUAGCUCAAUACAGCGUGGCAAAGUUGCUGUGGCUAGACUGCC [G1A G5U C13U G29U] was 0.06; that for AACAGAGCUCAACACAGCGUGGAAGAGUGGCUGUGGCUAGACUGCC [G1A G2A C23A A25G] was 0.43; that for AGCAGAGCUCAACAAAGCGAGGCAAAGUGGCUGUGGCUAGACUGCC [G1A C15A U20A] was 0.06.

Take AGCAAAGCUCUACACAGCGUGGCAAAGUGGCUGUGGCUGGACUGCC [G1A G5A A11U A39G]: the self-cleavage stood at 0.04.

In the case of AUCAGGGCGCAACACAGCGUGGCAAAGUUGCUGUGGCUAGACUGCC [G1A G2U A6G U9G G29U], the self-cleavage came out at 0.05. Consider ACCAGAGCUCAACACAGCGUGACAAAGUGCUUGUGGCUUGACUGCC [G1A G2C G22A G30C C31U A39U], for which the self-cleavage came out at 0.13.

For the variant AGCAUAGCUCAACACAGCGGGGUAAAGUGGUUGUGGCUAGACUGAC [G1A G5U U20G C23U C31U C45A], the self-cleavage was 0.06. The value for AGCAGAGCUCAACACAGCGUGGCAAAGUGGCUGUGGAUGGACUGCC [G1A C37A A39G] was 0.08; that for AGCAGAGCUCAACACAGCAUGGCAAAGUGGCUGUGGCUAGACUGGC [G1A G19A C45G] was 0.98. As for AGCAUAGCUAAACACAGCGUGGCAAAGUGGCUGUGGCUAGACUGCC [G1A G5U C10A], the self-cleavage turned out to be 0.09. The value for AGCACAGCUCAACACAGCGUCGCAAAGUGGCUUUGUCUAGACUGCC [G1A G5C G21C G33U G36U] was 0.11. For AGCAGAACUCAACACAGCGUGGCAAUGUGGCUGUGGCUAGACUGCC [G1A G7A A26U], the self-cleavage turned out to be 0.43.

Regarding AUCAGAGCUCAACACAGCGUGGCAAAGGAGAUGUGGCUAGACUGCC [G1A G2U U28G G29A C31A], the self-cleavage was 0.07. The value for AGCAGAGCUCAACACAACGUGGCAAAGUGGCUGUGGCUAAACUGCC [G1A G17A G40A] was 0; that for AGCAGACCUCAACACAGCGUGGAAGAGUGGCUGUGGCUAGACUGCC [G1A G7C C23A A25G] was 0.12; that for AGCAGAGCUCAACACAGCUUGGCUAAGUGGCUAUGGCUAGACUGCC [G1A G19U A24U G33A] was 0.04. For the variant AACAGAGAUCAACCCAGCGUGGCAAAGCGGCUGUGGCUAGACUGUC [G1A G2A C8A A14C U28C C45U], the self-cleavage amounted to 1.08.
